# Source: PubChem BioAssay AID651820 (National Center for Advancing Translational Sciences (NCATS), 2012)
# “And” between values parts separate entries of the source, which are not always exact repeats. Equal values may be shown once. In all, about 340,000 compounds went through this assay and about 12,000 (3.5%) were called active. Inconclusive results, whose numbers are uncertain, are shown with a selection of clear calls. Calls follow the shape of the dose curve; as a rule, active = well fitted inhibition curve with a large enough effect; inconclusive = small, poorly fitted or top-dose-only effect, or another doubt; inactive = no such curve, though single readings can be large or run the other way. Potencies beside an inconclusive call are fits to weak or partial responses and may not hold up.
# Experiment: qHTS Assay for Inhibitors of Hepatitis C Virus (HCV)
# Details: Huh7.5.1 HCVcc-Cre (HCVcc is cell-culture hepatitis C virus) infection, luciferase reporter, 44 h; activity change, negative = inhibition: at 41.8 µM (top of the series) unless noted
# Procedure, shortened: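 Infectious HCV cell culture screen: compound-treated cells (1,000/well, pre-plated 4 h) are infected with HCVcc-Cre at roughly 0.5 moi and grown 44 h. Infection is quantified by luciferase signal after 15 min substrate incubation at room temperature.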
# % is scaled to controls: 0 for no effect and ±100 for the full control effect; potency is read from the fitted curve at half-maximal effect; tags tell the direction and shape of the fitted curve.
SMILES,Potency,"activity change, negative = inhibition"
CCOc1ccc(CN(C)CC(=O)NNC(=O)c2ccc(Cl)cc2)cc1OC,"inconclusive: 31.6 µM [inhibitor, single point]",
COc1ccc(CCNC(=O)c2ccc(CNS(=O)(=O)c3cc(C)ccc3C)cc2)cc1OC,"inconclusive: 25.1 µM [inhibitor, single point]",
O=C1CC(=C(c2ccccc2)c2ccccc2)C(=O)N1CCCN1CCN(c2cccc(Cl)c2)CC1,"inconclusive: 11.2 µM [inhibitor, partial curve]",
C/C(=C/C(=O)Nc1cccc(F)c1)N1CCCC1,"inconclusive: 3.98 µM [inhibitor, single point]",
O=C(NCC1CC1)Nc1ccc(Cl)cc1,,inactive: -8.02%
C/C(CC(=O)Nc1ccccn1)=N\NC(=O)c1ccc([N+](=O)[O-])cc1Cl,,inactive: -7.37%
O=C(NCCNc1ccc([N+](=O)[O-])cc1)c1cccc2c(Br)cccc12,"inconclusive: 4.47 µM [inhibitor, partial curve]",
Cc1ccc2nc(COC(=O)c3cnccn3)cc(=O)n2c1,,inactive: 8.71%
COc1cccc(/C=N/NC(N)=S)c1OCc1ccccc1Cl,"inconclusive: 12.6 µM [inhibitor, single point]",
C=CCSc1nc2ccccc2n1C(=O)/C=C/c1ccc(OC)c(OC)c1,"inconclusive: 31.6 µM [inhibitor, single point]",
COc1ccc(N2CCN(CCCNC(=O)CC3Oc4ccc(C)cc4NC3=O)CC2)cc1 (centres undefined),"inconclusive: 31.6 µM [inhibitor, single point] and inconclusive: 12.6 µM [inhibitor, partial curve, poor fit]",
COc1ccccc1-c1noc(CCCC(=O)NC2CCCC2)n1,,inactive: -3.83%
C=C(C)Cn1c(CN(C)Cc2ccccc2)nc2c1c(=O)n(C)c(=O)n2C,active: 11.2 µM,
Cc1ccc(O)c(NC(=O)c2ccc3c(c2)C(=O)N(Cc2ccco2)C3=O)c1,,inactive: 17.6%
O=C(c1cnn2c(C(F)(F)F)cc(-c3ccc(F)cc3)nc12)N1CCc2ccccc2C1,"inconclusive: 31.6 µM [inhibitor, single point]",
COc1ccc(CCNC(=O)c2coc3ccccc3c2=O)cc1,"inconclusive: 31.6 µM [inhibitor, single point]",
NS(=O)(=O)c1ccc(NS(=O)(=O)c2ccc3c(c2)OCCO3)cc1,,inactive: -0.395%
COc1ccc(C(=O)N2CCCc3ccccc32)cc1,"inconclusive: 31.6 µM [inhibitor, single point]",
Cc1cc(CNC(=O)Cn2cc([N+](=O)[O-])cn2)c2ccccc2n1,,inactive: 23.1%
